Assay results as given in PubChem BioAssay AID1508623 (National Center for Advancing Translational Sciences (NCATS), 2021).
In all, about 48,000 compounds went through this assay and about 450 (0.94%) were called active. Roughly 19% stayed inconclusive and do not appear here. Calls follow the shape of the dose curve; as a rule, active = well fitted inhibition curve with a large enough effect; inconclusive = small, poorly fitted or top-dose-only effect; inactive = no such curve, though single readings can be large or run the other way. This is one part of the list.

experiment: Primary qHTS for Identification of Small Molecule Inhibitors of Huntingtin Promoter Activity; details: HEK293 HTT promoter firefly luciferase reporter (activity 0% = vehicle and -100% = no light), 24 h; series mostly up to 57.5 µM; activity change, negative = inhibition: at the top concentration; also: nearly all actives have a fitted effect of over 50% in size
Summary of the method: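 Firefly luciferase readout (Dual-Glo, 10 min RT) after 24 h, 37 °C compound exposure (final up to 57.5 uM) of HEK293 reporter cells cultured 24 h beforehand; PTC124 at 50 uM final as control inhibitor; activity scaled vehicle 0%, zero RLU -100%.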

| SMILES | activity change, negative = inhibition |
| --- | --- |
| CCOc1ccc(NC(=O)Cn2c(CCC(=O)O)ccc2-c2ccc(C)cc2)cc1 | inactive: -2.61% |
| Clc1ccc(Nc2nc(-c3ccccc3)c3cc(Cl)ccc3n2)cc1 | inactive: -3.77% |
| COc1cc(NC(=O)CC(C)S(=O)(=O)c2cc3c4c(c2)CCN4C(=O)CC3)cc(OC)c1 (centres undefined) | inactive: -2.14% |
| Cc1ccccc1C(=O)Nc1cccc(C(=O)OCc2cc(=O)n3nc(C4CC4)sc3n2)c1 | inactive: 3.01% |
| COc1ccc(Cn2c(CO)cnc2SCC(=O)NCc2ccco2)cc1 | inactive: -13.1% |
| Cc1ccc(C)c(CN2C(=O)c3ccccc3Sc3ccc(C(=O)NCc4ccc5c(c4)OCO5)cc32)c1 | inactive: -20.7% |
| COc1cc2nc(SCC(=O)Nc3cccc(C)c3)n3nc(-c4ccccc4)nc3c2cc1OC | inactive: -1.39% |
| COc1ccc(NC(=O)c2c(NC(=O)c3cccc(C)c3)sc3c2CCCC3)cc1 | inactive: -14.4% |
| Cc1ccc([N+](=O)[O-])cc1S(=O)(=O)N1CCn2cccc2C1c1ccc(F)c(F)c1 (centres undefined) | inactive: 5.23% |
| CC(=O)c1cccc(NC(=O)c2ccc3nc(C(C)C)oc3c2)c1 | inactive: -20.2% |
| CCOC(=O)c1cc(-c2ccc(OC)cc2)nn1Cc1ccccc1 | inactive: 59.9% |
| Cc1ccc(CSc2nc3c(c(=O)[nH]2)C(c2cccc(F)c2F)CC(=O)N3)cc1 (centres undefined) | inactive: -17.4% |
| COc1ccc(N2CCN(C(=O)c3nn(-c4ccc(C)cc4)c(=O)n(C)c3=O)CC2)cc1 | inactive: -22% |
| CC(C)c1ccc(NC(=O)C(Cc2ccccc2)NS(=O)(=O)c2ccc3c(c2)CCC(=O)N3)cc1 (centres undefined) | inactive: -13% |
| COc1cccc(CNC(=O)CN(C)S(=O)(=O)c2ccc3c(c2)c(=O)n(C)c(=O)n3C)c1 | inactive: -9.05% |
| Cn1nnnc1SCCNCc1ccccc1Cl | inactive: 6.95% |
| COc1cc2ncc3c(-c4ccccc4)nn(-c4ccc(C)cc4)c3c2cc1OC | inactive: -12% |
| COc1ccc(NC(=O)c2sc3nc[nH]c(=O)c3c2C)cc1OC | inactive: 7.22% |
| N#C/C(=C\c1ccc(-c2ccc(C(=O)O)cc2)o1)c1nc2ccccc2[nH]1 | inactive: 38.3% |
| COc1ccc(Cl)cc1NC(=O)Cn1cc(S(=O)(=O)Cc2cccc(Cl)c2)c2ccccc21 | inactive: -29.2% |
| CCc1ccccc1Nc1nn2c(=O)c3ccc(C(=O)NCc4ccccc4Cl)cc3nc2s1 | inactive: -34.4% |
| CCCCOc1ccc(C(=O)N(Cc2nc(-c3ccc(Cl)cc3)no2)C(C)C)cc1 | inactive: -19.9% |
| CC(C)=CCC/C(C)=C/CO | inactive: 1.44% |
| CC(=O)N1CCc2cc(Br)cc(S(=O)(=O)CCC(=O)NCCc3ccc(Cl)cc3)c21 | inactive: -13.3% |
| O=C(CCCn1c(=O)c2ccccc2n(Cc2cccc(F)c2)c1=O)NCc1ccccc1Cl | inactive: 0.473% |

| SMILES | activity change, negative = inhibition |
| --- | --- |
| CCCCNC(=O)c1sc2ncccc2c1-n1cccc1 | inactive: 1.18% |
| Cc1cc2oc(C(=O)Nc3c(C)n(C)n(-c4ccccc4)c3=O)cc(=O)c2cc1C | inactive: -6.32% [at 11.5 µM] |
| COC(=O)C(CCSC)NC(=O)c1cc2c(n(-c3ccccc3)c1=O)CC(C)(C)CC2=O (centres undefined) | inactive: 0.795% |
| CCOC(=O)Cn1c(=O)n(-c2ccc(Cl)cc2)c2nc(-c3ccc(Cl)cc3)nc(C(N)=O)c21 | inactive: -4.07% |
| COc1ccc(NC(=O)CN(c2ccc(C)cc2)S(=O)(=O)c2cccs2)cc1 | inactive: -3.42% |
| COc1cc(CNc2ccc3[nH]c(=O)[nH]c3c2)cc(Cl)c1OCc1ccc(F)cc1 | inactive: -12.7% |
| Cc1ccc2c(=O)cc(C(=O)Nc3nc4ccc(Cl)cc4s3)oc2c1 | inactive: 15.7% |
| Cc1cccc(C(=O)Nc2ccccc2OCc2cc(=O)n3c(C)csc3n2)c1 | inactive: 1.02% |
| O=C(Nc1ccc(C(=O)OCc2cc(=O)n3c4c(sc3n2)CCCC4)cc1)c1cccc(F)c1 | inactive: -5.28% |
| COc1ccc(CCNc2nc3c(c(=O)n(C)c(=O)n3C)n2Cc2ccccc2Cl)cc1OC | inactive: -29.5% |
| O=C(Cn1cc(S(=O)(=O)Cc2ccccc2F)c2ccccc21)NCc1ccccc1 | inactive: -11.3% |
| Cc1csc2nc(-c3cccc(NC(=O)c4c(F)cccc4F)c3)cn12 | inactive: -4.41% |
| COc1cc(OC)cc(N2C(=O)CSC23C(=O)Nc2ccccc23)c1 (centres undefined) | inactive: -22.7% |
| COc1ccc(C(=O)OCc2cc(=O)n3nc(C4CC4)sc3n2)cc1OC | inactive: -21.5% |
| CCCNC(=O)CSc1cn(CC(=O)N2CCCCCC2)c2ccccc12 | inactive: -24.6% |
| O=C(CSc1nc2sc3c(c2c(=O)[nH]1)CCCC3)Nc1ccccc1F | inactive: -22.3% |
| CC(C)Oc1ccc(CNS(=O)(=O)c2ccc(-c3cc(C(F)(F)F)on3)s2)cc1 | inactive: 6.07% |
| Cc1ccc(NC(=O)CCn2cnc3onc(-c4ccc(F)cc4)c3c2=O)c(Br)c1 | inactive: 5.02% |
| Cc1ccc2oc(C(=O)Nc3ccc(S(=O)(=O)Nc4nc(C)cc(C)n4)cc3)cc(=O)c2c1 | inactive: -20.1% |
| Cc1ccc2nc(CN3CCN(S(=O)(=O)c4ccc(F)cc4)CC3)oc2c1 | inactive: -34.9% |
| COc1ccc(CCNC(=O)CCn2c(=O)c3ccccc3n(Cc3ccccc3C)c2=O)cc1OC | inactive: -10.3% |
| COc1ccc(-c2nc3ccccc3o2)cc1NC(=O)c1ccc(-c2cccc(Cl)c2C)o1 | inactive: 4.86% |
| Cc1c(-c2nc(-c3ccc4c(c3)OCO4)no2)nnn1-c1cccc(C(F)(F)F)c1 | inactive: 8.28% |
| Cc1ccc(Cl)cc1N1CCN(C(=O)COCc2cc(-c3ccc4c(c3)OCO4)on2)CC1 | inactive: -22.9% |
